Measured values: the supplement of paper PMC4604168 (melanoma cell lines)
The list shows a part of the results. Most values come without repeats; read them as rough.

Experiments:
Assay in all cases: cell count relative to DMSO control; melanoma cells; higher = more viable cells
Conditions in all cases: library dose: standard library concentration; 72 h; first compound 2 µM
G361 = test system: G361
IPC-298 = test system: IPC-298
IST-MEL1 = test system: IST-MEL1
LB2518-MEL = test system: LB2518-MEL
LOXIMVI = test system: LOXIMVI
MEL-HO = test system: MEL-HO
MZ2-MEL = test system: MZ2-MEL
MeWo = test system: MeWo
RPMI7951 = test system: RPMI7951
RVH-421 = test system: RVH-421
SkMel28 = test system: SkMel28
SkMel2 = test system: SkMel2
SkMel30 = test system: SkMel30
SkMel5 = test system: SkMel5
UACC257 = test system: UACC257
UACC62 = test system: UACC62
WM115 = test system: WM115
WM1716 = test system: WM1716
WM1745 = test system: WM1745
WM3526 = test system: WM3526
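Note: cells treated in 1,536-well plates, then fixed and DAPI-stained, with nuclei counted from automated high-throughput microscope images.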

Row | SMILES | cell count (G361) | cell count (IPC-298) | cell count (IST-MEL1) | cell count (LB2518-MEL) | cell count (LOXIMVI) | cell count (MEL-HO) | cell count (MZ2-MEL) | cell count (MeWo) | cell count (RPMI7951) | cell count (RVH-421) | cell count (SkMel28) | cell count (SkMel2) | cell count (SkMel30) | cell count (SkMel5) | cell count (UACC257) | cell count (UACC62) | cell count (WM115) | cell count (WM1716) | cell count (WM1745) | cell count (WM3526)
1 | C[C@@H](N)c1ccc(C(=O)Nc2ccnc3[nH]ccc23)cc1 + C=CCNC1=C2C[C@@H](C)C[C@H](OC)[C@H](O)[C@@H](C)/C=C(\C)[C@H](OC(N)=O)[C@@H](OC)/C=C\C=C(/C)C(=O)NC(=CC1=O)C2=O [Tanespimycin] (partner dose 0.01 µM) | 47.4% | 84.8% | 60.2% | 76.3% | 103% | 66.9% | 50.9% | 66.4% | 8.31% | 61.6% | 41.3% | 96.9% | 86.6% | 48.3% | 74% | 47.3% | 24.8% | 29.3% | 38.1% | 67.8%
2 | CCCCCCCCCCCCCCCCCCOP(=O)([O-])OC1CC[N+](C)(C)CC1 [Perifosine] + CN(NC(=O)CC(=O)NN(C)C(=S)c1ccccc1)C(=S)c1ccccc1 [STA4783] (partner dose 0.03 µM) | 35.6% | 86.4% | 15.7% | 34.1% | 73.6% | 96.5% | 117% | 26.9% | 23.3% | 78.5% | 43.6% | 61.1% | 80.5% | 69.3% | 124% | 43.3% | 20.9% | 76.4% | 21.4% | 98.4%
3 | C[C@@H](N)c1ccc(C(=O)Nc2ccnc3[nH]ccc23)cc1 + CC(=O)O[C@@]12CO[C@@H]1C[C@H](O)[C@@]1(C)C(=O)[C@H](O)C3=C(C)[C@@H](OC(=O)[C@H](O)[C@@H](NC(=O)OC(C)(C)C)c4ccccc4)C[C@@](O)([C@@H](OC(=O)c4ccccc4)[C@H]21)C3(C)C [Docetaxel] (partner dose 0.0005 µM) | 12.3% | 37.5% | 29.3% | 36.1% | 60.4% | 42.8% | 36.2% | 23.6% | 24.2% | 44.4% | 14.9% | 20.8% | 36.8% | 31.6% | 54.8% | 50.2% | 55.7% | 23.5% | 32.2% | 39.5%
4 | Cn1sc(=O)n(Cc2ccccc2)c1=O + NC(=O)Nc1cc(-c2cccc(F)c2)sc1C(=O)N[C@H]1CCCNC1 [AZD7762] (partner dose 0.1 µM) | 93% | 93.9% | 90.7% | 64.5% | 91% | 89.2% | 107% | 80.4% | 60.6% | 102% | 35.2% | 93.1% | 108% | 81.7% | 114% | 68.5% | 80.7% | 89.1% | 87.6% | 64.3%
5 | C[C@@H](N)c1ccc(C(=O)Nc2ccnc3[nH]ccc23)cc1 + Nc1ccn([C@@H]2O[C@H](CO)[C@@H](O)C2(F)F)c(=O)n1 [gemcitabine] (partner dose 0.002 µM) | 35.2% | 50% | 50.2% | 79.9% | 66.8% | 46.2% | 55.5% | 38.6% | 52.5% | 32.5% | 128% | 117% | 107% | 73% | 70.3% | 77.7% | 109% | 34.5% | 36.6% | 139%
6 | C[C@@H](N)c1ccc(C(=O)Nc2ccnc3[nH]ccc23)cc1 + Cc1cc(Nc2cc(N3CCN(C)CC3)nc(/C=C/c3ccccc3)n2)n[nH]1 [ENMD2076] (partner dose 0.2 µM) | 86.4% | 84% | 82.4% | 78.6% | 81.1% | 50.2% | 52.9% | 67.8% | 42.4% | 46.4% | 56.2% | 91.9% | 94.1% | 58% | 41.1% | 76.9% | 48.5% | 30.3% | 43.5% | 87.6%
7 | CCCCCCCCCCCCCCCCCCOP(=O)([O-])OC1CC[N+](C)(C)CC1 [Perifosine] + Cn1c(Nc2ccc(C(F)(F)F)cc2)nc2cc(Oc3ccnc(-c4ncc(C(F)(F)F)[nH]4)c3)ccc21 [CHIR265] (partner dose 0.4 µM) | 26.5% | 40.6% | 72.6% | 38.5% | 58.7% | 66.2% | 63.2% | 63.7% | 16.7% | 47.5% | 31.5% | 50.8% | 56.4% | 28.1% | 72.1% | 47.8% | 30.8% | 64.5% | 49.7% | 38.1%
8 | CCCCCCCCCCCCCCCCCCOP(=O)([O-])OC1CC[N+](C)(C)CC1 [Perifosine] + C=CCn1c(=O)c2cnc(Nc3ccc(N4CCN(C)CC4)cc3)nc2n1-c1cccc(C(C)(C)O)n1 [MK1775] (partner dose 0.1 µM) | 93.6% | 76.7% | 83.2% | 52.7% | 62.9% | 83.6% | 96.7% | 76.7% | 25.1% | 76.6% | 31.7% | 68.7% | 64.1% | 48.4% | 84.1% | 66.6% | 74.4% | 81.8% | 37.3% | 78.7%
9 | CCCCCCCCCCCCCCCCCCOP(=O)([O-])OC1CC[N+](C)(C)CC1 [Perifosine] + Cc1nc(Nc2ncc(C(=O)Nc3c(C)cccc3Cl)s2)cc(N2CCN(CCO)CC2)n1 [dasatanib] (partner dose 0.02 µM) | 78.4% | 92.2% | 78.8% | 89% | 34.6% | 73.6% | 61.8% | 100% | 6.77% | 72.5% | 59.4% | 80.5% | 91.8% | 62.7% | 84.2% | 104% | 68.2% | 64.7% | 41% | 90.6%
10 | C[C@@H](N)c1ccc(C(=O)Nc2ccnc3[nH]ccc23)cc1 + Cn1c(=O)n(-c2ccc(C(C)(C)C#N)cc2)c2c3cc(-c4cnc5ccccc5c4)ccc3ncc21 [NVP-BEZ235] (partner dose 0.02 µM) | 48.8% | 67.7% | 64.7% | 81.1% | 47.1% | 44.7% | 36.4% | 48.6% | 47.9% | 52.2% | 43.5% | 74.4% | 54.1% | 44.7% | 83.2% | 60.9% | 63.9% | 54.5% | 55.3% | 62.7%
11 | C[C@@H](N)c1ccc(C(=O)Nc2ccnc3[nH]ccc23)cc1 + O=C(O)c1ccc(-c2c[nH]c3ncc(-c4ccccc4)cc23)cc1C1CCCC1 [GSK650394] (partner dose 0.8 µM) | 79.5% | 89.3% | 71.7% | 108% | 67.7% | 68.8% | 60.8% | 73.3% | 52.2% | 56.4% | 64.7% | 90.8% | 93.8% | 49.5% | 61.9% | 83.4% | 94.3% | 21.8% | 61.3% | 78.4%
12 | C[C@@H](N)c1ccc(C(=O)Nc2ccnc3[nH]ccc23)cc1 + CN1CCN(c2ccc3nc(-c4c(N)c5c(F)cccc5[nH]c4=O)[nH]c3c2)CC1 [Dovitinib] (partner dose 0.5 µM) | 55.1% | 58.9% | 67.7% | 53.4% | 58.4% | 45.5% | 31.5% | 45.7% | 43.4% | 46.9% | 46.5% | 56.2% | 78.5% | 61.3% | 50.7% | 79.8% | 66.8% | 49.1% | 28.8% | 77.5%
13 | C[C@@H](N)c1ccc(C(=O)Nc2ccnc3[nH]ccc23)cc1 + CC1(C)NC(=O)N(c2ccc([N+](=O)[O-])c(C(F)(F)F)c2)C1=O [nilutamide] (partner dose 5 µM) | 102% | 92.8% | 99.9% | 114% | 70.8% | 83.5% | 62.3% | 76.4% | 52.3% | 45.8% | 48.4% | 103% | 93.3% | 68.2% | 64.3% | 79.2% | 85.9% | 47.5% | 55.9% | 74%
14 | Cn1sc(=O)n(Cc2ccccc2)c1=O + C[C@@H](Oc1cc(-c2cnn(C3CCNCC3)c2)cnc1N)c1c(Cl)ccc(F)c1Cl [Crizotinib] (partner dose 1 µM) | 87.7% | 93.8% | 99.1% | 67.8% | 164% | 86.8% | 99.7% | 85.8% | 76.6% | 103% | 84.1% | 93.6% | 80.5% | 67.9% | 101% | 75.2% | 50.1% | 67% | 64.4% | 75.5%
15 | CCCCCCCCCCCCCCCCCCOP(=O)([O-])OC1CC[N+](C)(C)CC1 [Perifosine] + COc1ccc(Cl)c(Nc2nc3ccccc3nc2NS(=O)(=O)c2cccc(NC(=O)C(C)(C)N)c2)c1 [XL147] (partner dose 4 µM) | 83.7% | 86.4% | 78.4% | 90.1% | 129% | 79.2% | 113% | 110% | 18.3% | 93.5% | 88.3% | 119% | 91.3% | 102% | 89.1% | 113% | 91.7% | 123% | 82.8% | 101%
16 | C[C@@H](N)c1ccc(C(=O)Nc2ccnc3[nH]ccc23)cc1 + CS(=O)(=O)c1ccc(C(=O)Nc2ccc(Cl)c(-c3ccccn3)c2)c(Cl)c1 [vismodegib] (partner dose 5 µM) | 79.5% | 107% | 93.9% | 138% | 81.4% | 61.4% | 48.3% | 73.5% | 45.7% | 103% | 85.5% | 81.5% | 87.3% | 69.4% | 41.9% | 66.6% | 91.1% | 48.4% | 65.6% | 73.8%
17 | C[C@@H](N)c1ccc(C(=O)Nc2ccnc3[nH]ccc23)cc1 + C[C@]1(O)C[C@@H](c2nc(-c3ccc4ccc(-c5ccccc5)nc4c3)c3c(N)nccn32)C1 [OSI906] (partner dose 2 µM) | 75.4% | 64.7% | 71.2% | 67.3% | 68.5% | 51.2% | 41.7% | 64.7% | 45.4% | 25.8% | 54.1% | 60.6% | 83.6% | 52.9% | 21.1% | 59.9% | 91.6% | 38.8% | 35.8% | 64%
18 | CCCCCCCCCCCCCCCCCCOP(=O)([O-])OC1CC[N+](C)(C)CC1 [Perifosine] + Cc1ccc(Nc2nccc(N(C)c3ccc4c(C)n(C)nc4c3)n2)cc1S(N)(=O)=O [Pazopanib] (partner dose 2 µM) | 62.6% | 58.1% | 80% | 74.5% | 70.1% | 72.9% | 71.5% | 87.6% | 47.3% | 77.3% | 85.4% | 80% | 66.9% | 80.6% | 73.7% | 62% | 80.6% | 70.7% | 88.1% | 70.1%
19 | Cn1sc(=O)n(Cc2ccccc2)c1=O + CS(=O)(=O)CCNCc1ccc(-c2ccc3ncnc(Nc4ccc(OCc5cccc(F)c5)c(Cl)c4)c3c2)o1 [lapatinib] (partner dose 4 µM) | 70.5% | 81.4% | 88.9% | 89.4% | 87.7% | 79.6% | 61.9% | 84.7% | 53.5% | 94.3% | 94% | 65.3% | 78.7% | 59.3% | 81.9% | 62.5% | 79.6% | 84.3% | 75.3% | 74.1%
